# Laboratory results taken from the supplement of paper PMC11417369.
# ± gives the standard deviation of the averaged measurements. Some of the results follow.
# System: PfAP2-EXP AP2 domain (GST-tagged)
# Experiment: gcPBM binding intensity (ln(normalized median fluorescence intensity)); higher = stronger DNA binding
# Outline: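 In this array assay, P. falciparum DNA-binding domains with a GST tag, expressed in E. coli, were applied for 1 h to primer-extended double-stranded 36-bp intergenic genomic probes and negative controls on an Agilent 4 × 180k array. Bound protein was visualised with Alexa488 anti-GST antibody at 488 nm. Binding intensity is the highest Masliner-normalised natural-log median intensity across replicate spots of either probe orientation.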
row,Sequence,gcPBM binding intensity (ln)
1,GTACAAATGATTAATCCTTTACTTATATATATATAT [XGTACX_negctrl_site138],10.1 ± 0.18
2,TTAAAAATGTGTGTGCGTACATAATATTTCGAAAAA [XGTACX_site8197],8.79 ± 0.36
3,CATTTTTTTTTATAAATACACACGTACGGGTGCATA [CACACA_site1569],8.39 ± 0.34
4,TTCTTAAAAAAAAATAAAATAAAAAAAAAAATAAAA [CACACA_negctrl_site99],8.17 ± 0.47
5,GAACATTTACGCCCCACACACCTACCAACAAAAAAA [CACACA_site7746],8.88 ± 0.49
6,TTCTGGCAAAATAACACACACATATATTTTATATAC [CACACA_site3242],9.05 ± 0.22
7,TTTTTCATATGACACACACACAAAAATAATGTGGAA [CACACA_site7692],8.48 ± 0.43
8,AAATGAACACGAAAGGAAAAAAAAATATATATATAT [CACACA_negctrl_site267],9.96 ± 0.4
9,TCATTTTATTATTCTACACACTTATCTATAATTATA [CACACA_site34],8.88 ± 0.29
10,TATAAAAAATTCTTCCTTATTTTATGATATATATAT [TGCATGCA_negctrl_site57],9.06 ± 0.071
11,ATTTGCAGTATTTCGGAACACACAAACATAAATATG [CACACA_site8726],8.49 ± 0.35
12,AAATATATTTCACGCACACACACCCCAAATAAATTT [CACACA_site3820],9.05 ± 0.52
13,TATTCCTATAAAAAAACACACACATATAAATATATA [CACACA_site8727],8.52 ± 0.42
14,AAGTATTTTTTTACATGTACATATATATATATATAT [XGTACX_site5065],10.2 ± 0.26
15,AAATAGATAAGTAGGACACACATATATATATATTAA [CACACA_site1862],8.79 ± 0.46
16,ATATTTCAAAATGAAAGTACATATAAAAATTATACA [XGTACX_site3787],8.31 ± 0.29
17,CAAAAACATACCTACACACACAATATGTATTTATAA [CACACA_site5862],8.34 ± 0.42
18,AAATGAATATTCATAGTGCAATATATAAATGAAAAT,9.205 ± 0.078
19,TTTAATTATTAGTGTGCACACAACTATGAGTTTTTA [CACACA_site8997],8.68 ± 0.29

row,Sequence,gcPBM binding intensity (ln)
1,AATTACATTCAATTCTGTACTAATAGTAATTCAAAA [XGTACX_site7419],8.47 ± 0.35
2,AATTTTGTTTAGCACACACACATACATACATACATA [CACACA_site5707],8.91 ± 0.3
3,TTTAATTTATATTTTGTGCACATCTTATTATATATA [GTGCAC_site9630],9.135 ± 0.049
4,TATAATATTAATGACTGTACTCATACGTATATTTAT [XGTACX_site5493],8.62 ± 0.4
5,CCCATTTTGACAAAAAGTACAAGTTCAGGTTTTATA [XGTACX_site1532],8.53 ± 0.43
6,AAAAATTAAAATATTATAGTTGAAACTTTTATAAAT [TGCATGCA_negctrl_site454],8.02 ± 0.42
7,TTTCTCTTCTAAACATGTACAAAAATACATACATAT [XGTACX_site1365],8.87 ± 0.41
8,ATATATATATATATATGTACATACATACATAGAACT [XGTACX_site2214],10.4 ± 0.3
9,TCCCATTTATTATGGTGTACAATTAATTAAACATAA [XGTACX_site750],8.54 ± 0.17
10,TATATTTATTCCTGTTGTACTTTATATTATTTTTTT [XGTACX_site1415],9.14 ± 0.32
11,ACATATTAATTATTATGACATACATATCAGTTATTA [TGCATGCA_negctrl_site126],8.38 ± 0.27
12,TATATTATTTTATATTGTACATACCAAATATTATAT [XGTACX_site1693],8.54 ± 0.3
13,AGAAAAATAAACAAATGTACAAATTATTACTATATA [XGTACX_site1087],8.53 ± 0.43
14,CATGTGATAATGATTAGTACATAAACAAAAATATAT [XGTACX_site5866],8.82 ± 0.38
15,TAAAATATAGAAAATTTTATTAAATATAAAAAAATA [CACACA_negctrl_site1441],8.09 ± 0.36
16,AAAAATATATATTCAGTGCATATAACAAAAATTATA [GTGCAC_site9794],8.56 ± 0.2
17,CATATATAACCTATAGCACACATATATAATATATAT [CACACA_site8544],8.68 ± 0.3
18,ATTAAATAAAAAAACACACACATATATACATATATA [CACACA_site3445],8.54 ± 0.59
19,CATAATAATAGAAACACACACACATAGACATATATA [CACACA_site1308],8.79 ± 0.57

row,Sequence,gcPBM binding intensity (ln)
1,TTATATAAACACCAACGTACGTTCATTTAACATAAC [XGTACX_site5250],8.72 ± 0.4
2,TATATATATATATATTGTACATATGTGGTATAAATG [XGTACX_site6108],9.98 ± 0.5
3,ATATTACATATGTGCTGTACGCAATATATTATATCT [XGTACX_site1520],8.82 ± 0.36
4,GCATATCTATTTTCACGTACACAAACATGTATATAT [XGTACX_site3722],9.13 ± 0.42
5,AAGAACTTTAATAAGTGTACATTTATTGGAAACATG [XGTACX_site2995],8.7 ± 0.43
6,TATATATATACATAATGTACATTTTATAAATTTACA [XGTACX_site5283],8.97 ± 0.014
7,ATTTTTTTTTTTATTTTCTTTGAGATTATCTTAATT [CACACA_negctrl_site1209],8.47 ± 0.53
8,TTAATTTGTTCTTACACACACATATATATATATTTA [CACACA_site1185],8.74 ± 0.38
9,AATATTATTATTATTACACACACAATTATATTTACC [CACACA_site8061],8.38 ± 0.32
10,ATATTTTAAATGTTATGTACACATTTGTTGTTTACA [XGTACX_site7353],8.6 ± 0.44
11,ACTACCTATATTTAAGCATGCAAAAAATAAAAATAT [TGCATGCA_site238],9.8 ± 0.58
12,ATAAATTGTTCTTTTTGTGTAAACAGAATATTAAAA [CACACA_negctrl_site1022],8.28 ± 0.49
13,ATACAACATATATATACACACATATAATAATAATAA [CACACA_site3367],8.62 ± 0.42
14,TAATATAAAGGAAAAGAAAAGAAAAGAATATACAAT [CACACA_negctrl_site1369],8.56 ± 0.54
15,GAATAAAAAATATATGTGCACATATAAACTTAAAAT [GTGCAC_site9554],8.9 ± 0.3
16,AAACCAATAAAAAACTGTACAAAAATTATATGAGAT [XGTACX_site1269],8.88 ± 0.38
17,AAAAAACTTATAATCACACATATGATTAAATATTAA [CACACA_site4956],8.21 ± 0.3
18,ATAGGACCTATGTGCCCATGGGTACATTAAAAAAAA [CACACA_negctrl_site1465],8.63 ± 0.45
